Test results: PubChem BioAssay AID588342 (National Center for Advancing Translational Sciences (NCATS), 2011)
The campaign covered roughly 360,000 compounds. About 25,000 (6.9%) were called active. This list was built around the results that the source calls inconclusive (neither active nor inactive); the mix of calls is not that of the screen. The call rests on the fitted dose curve; in most records, active means well fitted inhibition curve with a large enough effect; inconclusive means small, poorly fitted or top-dose-only effect; inactive means flat fitted curve, though single readings scatter. Potencies of inconclusive entries are doubtful fits and often do not repeat.

molecular target: Luciferin 4-monooxygenase (Photinus pyralis) (UniProt P08659); assay: qHTS profiling assay for firefly luciferase inhibitor/activator using purifed enzyme and Km concentrations of substrates (counterscreen for miR-21 project); settings: purified FLuc, luminescence inhibition; series mostly up to 57.5 µM; further: nearly all actives have a fitted effect of over 55% in size
Chain of UniProt P08659 (P08659 whole entry, looked up): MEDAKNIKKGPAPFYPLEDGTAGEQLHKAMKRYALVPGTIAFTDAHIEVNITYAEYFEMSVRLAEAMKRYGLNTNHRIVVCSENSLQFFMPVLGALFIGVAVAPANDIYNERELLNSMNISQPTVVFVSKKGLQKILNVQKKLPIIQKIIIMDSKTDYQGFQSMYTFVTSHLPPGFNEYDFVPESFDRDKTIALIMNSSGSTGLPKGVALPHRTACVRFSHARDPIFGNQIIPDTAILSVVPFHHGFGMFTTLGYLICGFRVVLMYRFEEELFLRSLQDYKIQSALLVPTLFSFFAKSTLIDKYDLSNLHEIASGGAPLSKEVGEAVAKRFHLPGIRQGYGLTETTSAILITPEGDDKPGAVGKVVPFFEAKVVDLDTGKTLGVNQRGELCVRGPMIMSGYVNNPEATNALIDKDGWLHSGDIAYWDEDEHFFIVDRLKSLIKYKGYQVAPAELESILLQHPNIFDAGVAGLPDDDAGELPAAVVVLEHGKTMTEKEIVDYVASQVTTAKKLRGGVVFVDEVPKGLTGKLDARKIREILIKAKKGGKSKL
In short: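 Purified P. pyralis luciferase (10nM final) with 10uM D-luciferin and 10uM ATP (Km levels) in 50mM Tris acetate pH 7.5, 10mM Mg acetate, 0.01% Tween-20, 0.05% BSA; qHTS 6-point titration, ~60 µM downward; luminescence read.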
Potency means the concentration at half of the fitted maximal effect; tags describe the fitted curve by direction and shape.

| SMILES | Potency |
| --- | --- |
| COc1ccc(NC(=O)CCCc2nc(-c3ccco3)no2)c(OC)c1 | inactive |
| NS(=O)(=O)c1cccc(NC(=O)CCCC2CCCCC2)c1 | inconclusive: 16.9 µM [inhibitor, partial curve] |
| Cc1ccc(NC(=O)CSc2nn(-c3ccc(Cl)cc3)c(=S)s2)cc1S(=O)(=O)N(C)C | inactive |
| Cc1ccccc1/C=C1\SC(=S)N(/N=C/c2cc([N+](=O)[O-])ccc2O)C1=O | inconclusive: 23.9 µM [inhibitor, single point] |
| Cc1nnc(NC(=O)C23CC4CC(CC(C4)C2)C3)s1 | inactive |
| COC(=O)Cn1c(=O)c2c(nc3n2CCN3c2cccc(C)c2)n(C)c1=O | inconclusive: 21.3 µM [inhibitor, single point] |
| CC1Cc2ccccc2N1c1ncnc2nc[nH]c12 (stereo not given) | active: 21.3 µM |
| Cc1ccc(SCC(=O)c2cc(C)c(O)c(C)c2)cc1 | inconclusive: 26.9 µM [inhibitor, single point] |
| Nc1ccc(-c2cnc(-c3ccc(N)cc3)nc2)cc1 | active: 3.38 µM |
| O=C(N/N=C/c1ccncc1)c1ccccc1OCc1ccc(Br)cc1 | inconclusive: 23.9 µM [inhibitor, partial curve, poor fit] |
| O=C(O)CCC(=O)NNC(=O)CCC(=O)Nc1ccccc1 | inactive |
| CCOC(=O)CNC(=O)/C=C/c1c(Cl)cccc1Cl | inconclusive: 37.9 µM [inhibitor, single point] |
| COc1ccc(C(=O)O)cc1Nc1nc2ccc(C)cc2n2cnnc12 | inactive |
| O=C(c1cc(-c2ccco2)nc2ccccc12)N(Cc1nnc(-c2ccc(Cl)cc2)o1)C1CC1 | inconclusive: 19 µM [inhibitor, partial curve] |
| CN1C(=O)/C(=C/c2cccc(Cl)c2)Sc2ccc(C(=O)N3CCOCC3)cc21 | inactive |
| O=c1c(-c2ccccc2)c(O)cc(-c2ccncc2)n1-c1ccc(Cl)cc1 | inconclusive: 26.9 µM [inhibitor, partial curve, poor fit] |
| Cc1ccc(S(=O)(=O)N2CCOCC2)cc1NC(=O)COC(=O)CNC(=O)c1ccc(Cl)cc1Cl | inactive |
| Cc1cc(=O)[nH]c(SCC(=O)c2ccc(C(C)C)cc2)n1 | inconclusive: 26.9 µM [inhibitor, single point] |
| COc1cc(NC(=O)c2csc(-c3ccncc3)n2)cc(C(=O)Nc2cccc(C(F)(F)F)c2)c1 | inconclusive: 26.9 µM [inhibitor, single point] |
| N#C/C(=C\c1c[nH]c2ccccc12)c1nnc2n1CCCCC2 | inconclusive: 37.9 µM [inhibitor, partial curve, poor fit] |
| CCSc1nc(=O)n(-c2ccccc2)c(C)c1C(C)=O | inconclusive: 37.9 µM [inhibitor, partial curve, poor fit] |
| Cc1ccc(S(=O)(=O)Nc2ccc(-c3cn4ccc(C)cc4n3)cc2)cc1 | inconclusive: 23.9 µM [inhibitor, partial curve] |
| c1ccc2sc(NCC3CCCO3)nc2c1 (stereo not given) | active: 21.3 µM |

| SMILES | Potency |
| --- | --- |
| C/C(CC(=O)Nc1ccc(Cl)c(C(F)(F)F)c1)=N\NC(=O)c1cc2ccccc2cc1O | inconclusive: 37.9 µM [inhibitor, single point] |
| Nc1cc(OC(=O)c2ccccc2Br)nn1S(=O)(=O)c1ccccc1 | inconclusive: 26.9 µM [inhibitor, partial curve, poor fit] |
| COc1ccccc1OCC(=O)N(Cc1nc(-c2ccc(Cl)cc2)no1)C(C)C | inconclusive: 23.9 µM [inhibitor, single point] |
| CN(CCCNC(=O)CSc1cc(=O)n(C)c2ccc(Cl)cc12)Cc1ccccc1 | inactive |
| CC12CCC(C(=O)N(NC(=O)c3cc(Cl)ccc3O)C1=O)C2(C)C (stereo not given) | inconclusive: 26.9 µM [inhibitor, partial curve, poor fit] |
| CSc1ccc(/C=C/C(=O)OCC(=O)c2ccc[nH]2)cc1 | inactive |
| Cc1nn(-c2ccccc2)cc1C(c1c(N)[nH]c(=S)[nH]c1=O)c1c(N)[nH]c(=S)[nH]c1=O | inconclusive: 42.6 µM [inhibitor, partial curve, poor fit] |
| Cc1ccc(Cl)c(OCC(=O)N2CCc3ccccc3C2)c1 | inconclusive: 26.9 µM [inhibitor, single point] |
| CC(C)C(=O)NC(c1ccco1)c1ccc2cccnc2c1O (stereo not given) | inactive |
| COc1ccc(-c2cc(C(=O)NCCN3CCOCC3)c3cc(C(C)C)ccc3n2)cc1 | inconclusive: 30.1 µM [inhibitor, partial curve, poor fit] |
| CC1=C(C)CC(C(=O)Nc2ccc3c(c2)OCO3)C(C(=O)O)C1 (stereo not given) | inactive |
| O=S(=O)(Nc1cccnc1Cl)c1ccc(F)cc1 | inactive |
| COc1cc(/C=N/NC(=O)c2cccc3ccccc23)cc(OC)c1O | inconclusive: 23.9 µM [inhibitor, partial curve, poor fit] |
| COC(=O)c1sccc1NC(=O)CC1C(=O)NCCN1C(=O)c1ccc(C)c(C)c1 (stereo not given) | inactive |
| CC(Sc1ccccn1)C(=O)Nc1ccc2c(c1)OCO2 (stereo not given) | inconclusive: 23.9 µM [inhibitor, partial curve, poor fit] |
| O=C(NCCc1ccccc1)c1ccc2c(=O)[nH]c3c(C(=O)NCC4CCCO4)sc(=S)n3c2c1 (stereo not given) | inconclusive: 23.9 µM [inhibitor, partial curve] |
| O=C(CN1CCOCC1)Nc1ncc(Br)cc1Br | inconclusive: 37.9 µM [inhibitor, single point] |
| O=C(Nc1ccc(Cl)cc1)c1ccc(CN2CCc3ccccc3C2)cc1 | inactive |
| NC(=O)c1nsc(C(=O)N(c2cccc(O)c2)C(C(=O)NC2CCCC2)c2ccc(Cl)cc2)c1N (stereo not given) | inactive |
| COc1ccc(C(=O)CSc2ncnc3nc[nH]c23)cc1 | inconclusive: 37.9 µM [inhibitor, partial curve, poor fit] |
| CCN(CC)c1ccc(CNc2nc3ccccc3n2CCN2CCCCC2)cc1 | inconclusive: 19 µM [inhibitor, partial curve] |
| O=c1oc2ccccc2cc1-c1cn2ccccc2n1 | active: 0.0953 µM |
